For 40 molecules, cytotoxicity call results are on record in the antibiotic and cytotoxicity screens of Wong et al. (2023).

The list shows a part of the results.

This experiment concerns HepG2. In words: cytotoxicity call (relative viability < 0.9). The note with it: 10 µM.
With `CO[C@H](CN(C)S(=O)(=O)c1cccc(Cl)c1)[C@H](C)CN([C@H](C)CO)S(=O)(=O)c1ccc(Cl)cc1`, the cytotoxicity call is “inactive”. Turning to `C[C@@H]1CN([C@H](C)CO)C(=O)c2cc(NS(=O)(=O)c3cn(C)cn3)ccc2O[C@@H](C)CCCCO[C@@H]1CN(C)C`, the cytotoxicity call was “inactive”. As for `CC(C)NCC(O)COc1cccc2[nH]c3ccccc3c12` (stereo not given), the cytotoxicity call is “active”.

`CCCCn1c(N)c(N(CC)C(=O)Cc2ccc(S(=O)(=O)N3CCOCC3)s2)c(=O)[nH]c1=O`: the cytotoxicity call was “inactive”. With `COC(=O)C1=C2CC[C@H](COC(=O)NCCCCCC(=O)NO)NC(=O)N[C@H](Cc3ccccc3)c3cn(nn3)C[C@@H](Cc3ccccc3)NC(=O)c3oc(c(C(=O)OC)c3C(=O)OC)CC[C@H](COC(=O)NCCCCCC(=O)NO)NC(=O)N[C@H](Cc3ccccc3)c3cn(nn3)C[C@@H](Cc3ccccc3)NC(=O)C(=C1C(=O)OC)O2`, the cytotoxicity call is “inactive”. In the case of `C[C@@H]1CCCCO[C@@H](CN(C)C(=O)CCC(F)(F)F)[C@H](C)CN([C@H](C)CO)C(=O)c2cc(NS(=O)(=O)c3ccc(F)cc3)ccc2O1`, the cytotoxicity call was “inactive”.

Regarding `Cc1ccc(Oc2nnc(-c3cccs3)c3ccccc23)cc1`, the cytotoxicity call was “inactive”. For the molecule `NCCCC(N)CC(=O)NC1CNC(=O)C(C2CC(O)NC(N)=N2)NC(=O)C(=CNC(N)=O)NC(=O)C(CO)NC(=O)C(CO)NC1=O.O=S(=O)(O)O` (stereo not given), the cytotoxicity call was “inactive”. As for `OC[C@H]1O[C@H](n2cnc3cncnc32)[C@@H](O)[C@@H]1O`, the entry is “active”; as for `CC(C)N1C[C@@H](C)[C@H](CN(C)Cc2ccc(Oc3ccccc3)cc2)Oc2c(C(=O)Nc3ccncc3)cccc2C1=O`, “inactive”. Turning to `C[C@@H]1CN([C@@H](C)CO)C(=O)c2cccc(NC(=O)Nc3ccc(C(F)(F)F)cc3)c2O[C@@H]1CN(C)C(=O)Nc1ccc2c(c1)OCO2`, the cytotoxicity call is “inactive”.

As to `COCC(=O)Nc1ccc2c(c1)C(=O)N(C)C[C@@H](OC)[C@@H](C)CN(C(=O)c1ccccc1F)[C@@H](C)CO2`, the cytotoxicity call is “inactive”. For `CC(O)(P(=O)([O-])O)P(=O)([O-])O.[Na+].[Na+]`, the cytotoxicity call is “inactive”. On to `O=C(O)C[C@@H](NCCN[C@H](CC(=O)O)C(=O)O)C(=O)O`, for which the cytotoxicity call was “inactive”. On to `C[C@H](CO)N1C[C@H](C)[C@H](CN(C)Cc2ccc(Cl)c(Cl)c2)Oc2c(NC(=O)Nc3ccc(F)cc3)cccc2C1=O`, for which the cytotoxicity call is “inactive”. With `CN1C(=O)c2cc(NS(C)(=O)=O)ccc2OC[C@@H]2O[C@@H](CC(=O)N3CCOCC3)CC[C@@H]21` the entry was “inactive”; with `C[C@@H]1CN([C@H](C)CO)C(=O)Cc2cc(NC(=O)CCN3CCOCC3)ccc2O[C@H]1CN(C)Cc1ccc2c(c1)OCO2`, “inactive”; with `CC(C)NC(=O)N(C)C[C@H]1Oc2ccc(NC(=O)NC3CCCCC3)cc2C(=O)N([C@@H](C)CO)C[C@@H]1C`, “inactive”. With `COc1ccc(NC(=O)N(C)C[C@@H]2Oc3ccc(NC(=O)CCN4CCOCC4)cc3CC(=O)N([C@H](C)CO)C[C@H]2C)cc1` the entry was “inactive”; with `C[C@@H]1CN([C@H](C)CO)C(=O)Cc2cc(NC(=O)CCCCCC(=O)Nc3ccccc3N)ccc2O[C@H]1CN(C)Cc1ccc(-c2ccccc2)cc1`, “inactive”; with `CCC(=O)NCCN1CCN(C(=O)CC)CC1`, “inactive”.

As to `CCCNC(=O)N1C[C@]2(CCN(CC2)C(=O)Cc2cccnc2)c2c([nH]c3cc(ccc23)OC)[C@H]1CO`, the cytotoxicity call was “inactive”. For `O=C(C[C@H]1CC[C@H](NC(=O)CN2CCOCC2)[C@H](CO)O1)NCCc1ccncc1`, the cytotoxicity call is “inactive”. On to `COc1ccc(NC(=O)N(C)C[C@H]2OCCCC[C@H](C)Oc3ccc(NS(=O)(=O)c4ccc(C)cc4)cc3C(=O)N([C@H](C)CO)C[C@@H]2C)cc1`, for which the cytotoxicity call was “inactive”.

For the molecule `COc1ccc(S(=O)(=O)Nc2ccc3c(c2)C(=O)N([C@@H](C)CO)C[C@@H](C)[C@@H](CN(C)S(=O)(=O)c2ccccc2)O3)cc1`, the cytotoxicity call is “inactive”. On to `COCCOC(=O)N1C(=O)[C@@]2(c3ccccc31)[C@H](c1ccccc1OCCO)N1[C@H](c3ccccc3)[C@H](c3ccccc3)OC(=O)[C@H]1[C@@H]2C(=O)Nc1nc2ccccc2s1`, for which the cytotoxicity call is “inactive”.

Consider `C[C@@H]1CN([C@H](C)CO)C(=O)c2cc(NC(=O)NC3CCCCC3)ccc2O[C@@H]1CN(C)Cc1ccc(Cl)c(Cl)c1`, for which the cytotoxicity call is “inactive”.

Turning to `C=CCN1C(=O)[C@]2(O[C@@H](CCOC(=O)NCCCCCC(=O)NO)[C@H]([Si](C)(C)c3ccc(OC)cc3)[C@H]2C)c2cc(I)ccc21`, the cytotoxicity call was “inactive”. Turning to `O=c1c(O)c(-c2ccc(O)c(O)c2)oc2cc(O)ccc12`, the cytotoxicity call was “active”. With `C[C@@H]1CCCCO[C@@H](CN(C)C(=O)Nc2ccc(C(F)(F)F)cc2)[C@H](C)CN([C@H](C)CO)C(=O)c2cc(NC(=O)C3CCCCC3)ccc2O1` the entry was “inactive”; with `CO[C@H]1CN(C)C(=O)c2ccc(NS(=O)(=O)c3cn(C)cn3)cc2OC[C@H](C)N(Cc2cccc(F)c2)C[C@H]1C`, “inactive”; with `C[C@H](CO)N1C[C@H](C)[C@@H](CN(C)Cc2ccc(Oc3ccccc3)cc2)Oc2ccc(NC(=O)C3CC3)cc2CC1=O`, “inactive”.

With `CC(C)NC(=O)Nc1ccc2c(c1)CC(=O)N([C@H](C)CO)C[C@@H](C)[C@H](CN(C)Cc1ccc(Oc3ccccc3)cc1)O2`, the cytotoxicity call was “inactive”. `Cc1noc(C)c1NC(=O)N(C)C[C@@H]1Oc2ccc(NS(=O)(=O)c3ccccc3)cc2CC(=O)N([C@H](C)CO)C[C@H]1C`: the cytotoxicity call is “inactive”.

`O=C(Nc1ccc2c(c1)[C@@H]1C[C@@H](CC(=O)N3CCc4ccccc4C3)O[C@H](CO)[C@@H]1O2)C1CCOCC1`: the cytotoxicity call is “inactive”. With `COc1cnc(SC)n(C)c1=O`, the cytotoxicity call was “inactive”. Regarding `CNC(=O)c1ccc2c(c1)nnn2C`, the cytotoxicity call was “inactive”. For `COc1ccc(S(=O)(=O)Nc2ccc3c(c2)C(=O)N([C@@H](C)CO)C[C@H](C)[C@@H](CN(C)C(=O)Nc2ccc(F)cc2)OCCCC[C@H](C)O3)cc1`, the cytotoxicity call was “active”.

As for `CN1C(=O)c2cc(NC(=O)Cc3cccs3)ccc2OC[C@@H]2O[C@H](CC(=O)NCCCN3CCOCC3)CC[C@@H]21`, the cytotoxicity call was “inactive”. Consider `O=C1CCc2c(ccc3ccccc23)O1`, for which the cytotoxicity call is “inactive”.
